We go through six molecules from US4022891A (priority 1974, dated 1977).

“And” between values parts separate entries of the source, which are not always exact repeats. Equal values may be shown once.

For data set [1], the system named is intestinal calcium absorption. Kind of data set: Intestinal calcium absorption by the everted gut sac method (duodenum) after oral dosing (Examples 29 (b) and 30). The note with it: for ^45 Ca (S/M): Table 2, 625 p moles oral, 8 hours, control 1.29 ± 0.16; for Effect of promoting intestinal calcium absorption (everted gut sac): Table 3, control 3.31 ± 0.12; for intestinal calcium absorption/transport promoting activity, comparative: in words; for Effect of promoting intestinal calcium absorption, activity of 1α-HCC set at 1: Table 7, Examples 29 to 33.

For data set [2], the system named is Serum Ca. Kind of data set: Total calcium concentration in the serum (Example 32, Table 5). The class given is in vivo, Male wistar rats. The source says: (§1) Male wistar rats (each with a body weight of about 150 g) were subcutaneously administered with an aqueous solution of ^45 CaCl2 in a dose of 50 μCi per rat, and kept for 6 weeks. ^45 Ca so administered was rapidly absorbed, and a greater portion of it gathered at the bones in several hours. Three weeks later, the ^45 Ca level in blood became constant, and only the bones were in the specifically labelled state. This was confirmed by a macroautoradiographic analysis of the whole body. […] Blood was taken out with the passage of time, and the serum radioactivity level was measured by the method described in Example 29 (a). An increase in the serum radioactivity level was made an index of the effect of bone absorption. The control group was administered with corn oil alone. The number of rats tested was 4 in each group. In this figure, the symbol * indicates a significant difference in serum radioactivity level from the control.
(§2) A similar test to Example 31 was performed on the above four compounds. Unlike Example 31, the experiment was begun three weeks after the administration of ^45 CaCl2. Both the serum radioactivity level and the total calcium concentration in the serum were measured. For the measurement of the calcium concentration, a calcium measuring kit (made by Iatron Company) was used.

The subject of data set [3] is bone absorption. Kind of data set: Bone absorbing effect: serum 45Ca level in 45Ca-labelled rats (Example 32, Table 4). The class given is in vivo, Male wistar rats. The note with it: for bone absorbing effect / bone resorption, comparative: in words; for Bone absorbing effect, activity of 1α-HCC set at 1: Table 7, Examples 29 to 33. How it is done:
An increase in the serum radioactivity level was made an index of the effect of bone absorption. The control group was administered with corn oil alone. The number of rats tested was 4 in each group. In this figure, the symbol * indicates a significant difference in serum radioactivity level from the control.
Both the serum radioactivity level and the total calcium concentration in the serum were measured. For the measurement of the calcium concentration, a calcium measuring kit (made by Iatron Company) was used.

The nature of data set [4]: Body weight change (Example 32, FIG. 7). The class given is in vivo, Male wistar rats. The note with it: in words; for change in body weight: FIG. 7.
Excerpt: as §1, §2

Data set [5] deals with intestinal calcium transport. The note with it: in words; found in vivo; cited from earlier work.
Data set [6] relates to bone absorption. The data set is described as follows: Bone absorption effect: increase in serum 45Ca radioactivity in 45Ca-labelled rats, continuous oral dosing (Example 31, FIG. 6). The class given is in vivo, Male wistar rats.
Excerpt: as §1

For data set [7], the system named is intestinal calcium transport. Kind of data set: Effect of promoting intestinal calcium transport: serum radioactivity after oral 45CaCl2 (Example 29 (a)). The class given is in vivo, Male Wistar rats. The note with it: for Radioactivity in serum: 625 p moles oral. How it is done:
(a) Comparison with 1α-hydroxycholecalciferol (1α-HCC)
After a predetermined period of time, a solution of radioactive calcium chloride (^45 Ca Cl2, 30 μCi/ml) was administered orally. The radioactivity level in blood was measured over the course of 10 to 60 minutes. The maximum value was made an index of intestinal calcium absorption.
A control group of rats was administered with corn oil alone in the same amount.
The radioactivity level was measured by placing 0.2 ml. of serum in a Vial bottle, adding 12 ml. of a cocktail containing a scintillator (containing 1200 ml of toluene, 800 ml of ethyl cellosolve, 8 g of 2,5-diphenyloxazole, and 300 mg of 2,2'-p-phenylenebis(5-phenyloxazole)), and determining the radioactivity by means of a liquid scintillation counter.

For data set [8] the following is noted: in words; prior knowledge; cited from earlier work.
A short description of data set [9]: in vivo. The following applies: mouse, in vivo, ID50, mouse. How it is done: (§3) The toxicity of each of the above two compounds was tested by a well known method.
Data set [10] has as its system Mouse. Kind of data set: in vivo. The note with it: Table 7; Examples 29 to 33. The procedure: as §3

For the molecule `C=C1/C(=C\C=C2/CCC[C@]3(C)[C@@H]([C@H](C)CC[C@@H](O)C(C)C)CC[C@@H]23)C[C@@H](O)C[C@@H]1O` [1α,24(R)-DHCC, 1α,24(R)-dihydroxycholecalciferol], in data set [1], the “^45 Ca (S/M)” value came out at 5.86 ± 1.98. Further, the “Effect of promoting intestinal calcium absorption (everted gut sac)” value was determined as 4.42 ± 0.41 in data set [1] (dose 125 p mole), 5.93 ± 0.33 in data set [1] (dose 625 p mole) and 5.84 ± 0.39 in data set [1] (dose 3,125 p mole). For the same molecule, in data set [1], the “intestinal calcium absorption/transport promoting activity, comparative” value was “greater effect of promoting intestinal calcium absorption than 1α,24(S)-DHCC and 1α,24(R)-DHCC > 1α,24-DHCC > 1α,24(S)-DHCC”. Also, the “Serum Ca” value amounted to 11.3 ± 0.35 mg/dL in data set [2] (0 days, control 11.4 ± 0.32); 12.6 ± 0.23 mg/dL in data set [2] (5 days, control 10.0 ± 0.29); 13.3 ± 0.25 mg/dL in data set [2] (7 days, control 11.1 ± 0.22); 12.8 ± 0.35 mg/dL in data set [2] (9 days, control 10.6 ± 0.15). Besides, the “Serum ^45 Ca level, serum radioactivity” value was 648 ± 44.3 cpm in [3] (0 days, control 699 ± 53.7); 874 ± 30.4 cpm in data set [3] (5 days, control 621 ± 48.6); 778 ± 26.9 cpm in data set [3] (7 days, control 597 ± 33.9); 681 ± 63.7 cpm in data set [3] (9 days, control 600 ± 49.3). The “bone absorbing effect / bone resorption, comparative” value in data set [3] is reported as 1α,24(R)-DHCC > 1α,24-DHCC > 1α,24(S)-DHCC.

As to `C=C1/C(=C\C=C2/CCC[C@]3(C)[C@@H]([C@H](C)CC[C@H](O)C(C)C)CC[C@@H]23)C[C@@H](O)C[C@@H]1O` [1α,24(S)-DHCC, 1α,24(S)-dihydroxycholecalciferol], the “change in body weight” value in data set [4] is given as “little difference from the control group”. The “^45 Ca (S/M)” value in [1] was found to be 2.68 ± 0.80. Moreover, the entries for the “Effect of promoting intestinal calcium absorption (everted gut sac)” value in [1] (dose 125 p mole), in data set [1] (dose 625 p mole) and in data set [1] (dose 3,125 p mole) were 3.97 ± 0.28, 4.17 ± 0.31 and 5.18 ± 0.20, respectively. Besides, the “Serum Ca” value in [2] (0 days, control 11.4 ± 0.32) was determined as 11.2 ± 0.16 mg/dL; in [2] (5 days, control 10.0 ± 0.29) it was 11.5 ± 0.33 mg/dL; in [2] (7 days, control 11.1 ± 0.22), 11.2 ± 0.29 mg/dL; in data set [2] (9 days, control 10.6 ± 0.15), 11.5 ± 0.24 mg/dL. For the same molecule, the “Serum ^45 Ca level, serum radioactivity” value in data set [3] (0 days, control 699 ± 53.7) is 780 ± 43.5 cpm; in [3] (5 days, control 621 ± 48.6), 539 ± 45.2 cpm; in [3] (7 days, control 597 ± 33.9), 520 ± 53.8 cpm; in data set [3] (9 days, control 600 ± 49.3) it was 609 ± 91.5 cpm.

With `C=C1/C(=C\C=C2/CCC[C@]3(C)[C@@H]([C@H](C)CCC(O)C(C)(C)O)CC[C@@H]23)C[C@@H](O)C[C@@H]1O` (stereo partly drawn) [1α,24,25-THCC, 1α,24,25-trihydroxycholecalciferol], the “promoting effect on intestinal calcium transport” value in data set [5] was “fairly selective, although not so strong, promoting efffect on intestinal calcium transport”.

Turning to `C=C1/C(=C\C=C2/CCC[C@]3(C)[C@@H]([C@H](C)CCC(O)C(C)C)CC[C@@H]23)C[C@@H](O)C[C@@H]1O` (stereo partly drawn) [1α,24-DHCC, 1α,24-dihydroxycholecalciferol], in data set [4], the “toxicity suggested by body weight change” value is “lower than that of 1α-HCC”. Besides, in data set [4], the “change in body weight” value is “lesser degree of change in body weight than 1α,-HCC”. The “time after start of administration at which bone absorption increased significantly” value in data set [6] (2,125 P moles once a day oral, FIG. 6) was determined as 4 days. The “toxicity suggested by bone absorption” value in data set [6] (in words) is recorded as “lower in toxicity”. Besides, in data set [6] (in words, FIG. 6), the “bone absorbing effect compared with 1α-HCC” value is “weaker bone absorbing effect than 1α-HCC”. For the same molecule, the “Effect of promoting intestinal calcium absorption (everted gut sac)” value is given as 4.12 ± 0.25 in data set [1] (dose 125 p mole), 4.84 ± 0.32 in [1] (dose 625 p mole) and 5.47 ± 0.33 in data set [1] (dose 3,125 p mole). Also, the “Effect of promoting intestinal calcium absorption, activity of 1α-HCC set at 1” value in data set [1] turned out to be 1. For the same molecule, in [1], the “intestinal calcium absorption/transport promoting activity, comparative” value was “at least an equivalent activity to 1α-HCC and 1α,24(R)-DHCC > 1α,24-DHCC > 1α,24(S)-DHCC”. Moreover, the “Serum Ca” value turned out to be 11.7 ± 0.26 mg/dL in data set [2] (0 days, control 11.4 ± 0.32); 12.9 ± 0.18 mg/dL in data set [2] (5 days, control 10.0 ± 0.29); 11.5 ± 0.23 mg/dL in [2] (7 days, control 11.1 ± 0.22); 12.1 ± 0.19 mg/dL in data set [2] (9 days, control 10.6 ± 0.15). The Radioactivity in serum came to 360 ± 150 cpm in data set [7] (4 hours after administration), 996 ± 80 cpm in data set [7] (8 hours after administration), 924 ± 130 cpm in data set [7] (12 hours after administration) and 426 ± 61 cpm in data set [7] (24 hours after administration). Also, the “promotion of intestinal calcium absorption compared with 1α-HCC” value in data set [7] (in words) is “nearly an equivalent effect to 1α-HCC”. Further, the “Serum ^45 Ca level, serum radioactivity” value in [3] (0 days, control 699 ± 53.7) was 675 ± 54.9 cpm; in data set [3] (5 days, control 621 ± 48.6), 948 ± 64.6 cpm; in [3] (7 days, control 597 ± 33.9) it was 700 ± 32.8 cpm; in data set [3] (9 days, control 600 ± 49.3) it was 661 ± 78.8 cpm. Also, the “Bone absorbing effect, activity of 1α-HCC set at 1” value in data set [3] is recorded as 1/3. Moreover, the “bone absorbing effect / bone resorption, comparative” value was “far weaker in bone absorbing effect than 1α-HCC and 1α,24(R)-DHCC > 1α,24-DHCC > 1α,24(S)-DHCC” in [3]; “weak bone absorbing effect as compared with the known analogs of active form of vitamin D3” in [3] (listed as 1α-24-DHCC).

Take `C=C1/C(=C\C=C2/CCC[C@]3(C)[C@@H]([C@H](C)CCCC(C)(C)O)CC[C@@H]23)C[C@@H](O)C[C@@H]1O` [1α,25-DHCC, 1α,25-dihydroxycholecalciferol]: in data set [8], the “activity as analogs of active forms of vitamin D3” value is on record as “superior activites as analogs of active forms of vitamin D3” and the toxicity entry is recorded as “at least as toxic as 1α-HCC”.

For the molecule `C=C1/C(=C\C=C2/CCC[C@]3(C)[C@@H]([C@H](C)CCCC(C)C)CC[C@@H]23)C[C@@H](O)C[C@@H]1O` [1α-HCC, 1α-hydroxycholecalciferol, reference compound], the “activity as analogs of active forms of vitamin D3” value in [8] is on record as “superior activites as analogs of active forms of vitamin D3”. Further, in data set [8], the toxicity result is given as “very high toxicity”. For the same molecule, the “Effect of promoting intestinal calcium absorption (everted gut sac)” value turned out to be 3.59 ± 0.23 in [1] (dose 125 p mole), 4.10 ± 0.27 in data set [1] (dose 625 p mole) and 5.10 ± 0.27 in data set [1] (dose 3,125 p mole). In data set [1], the “Effect of promoting intestinal calcium absorption, activity of 1α-HCC set at 1” value was found to be 1. Besides, the LD50 in data set [9] (iv, o + (female), intravenous) was determined as 0.1 mg/kg; in [9] (iv, o^+ (male), intravenous) it was 0.167 mg/kg; in [9] (po, o + (female), peros), 0.508 mg/kg; in data set [9] (po, o^+ (male), peros), 0.474 mg/kg. The “Acute toxicity, 1α-HCC set at 1” value in data set [10] is recorded as 1. Further, the “Serum Ca” value in data set [2] (0 days, control 11.4 ± 0.32) is 10.4 ± 0.21 mg/dL; in data set [2] (5 days, control 10.0 ± 0.29), 14.1 ± 0.29 mg/dL; in [2] (7 days, control 11.1 ± 0.22) it was 14.7 ± 0.33 mg/dL; in data set [2] (9 days, control 10.6 ± 0.15), 13.8 ± 0.41 mg/dL. Moreover, the Radioactivity in serum in data set [7] (4 hours after administration) was found to be 697 ± 221 cpm; in [7] (8 hours after administration), 1035 ± 150 cpm; in [7] (12 hours after administration), 643 ± 210 cpm; in data set [7] (24 hours after administration), 332 ± 28 cpm. Moreover, the “Serum ^45 Ca level, serum radioactivity” value in data set [3] (0 days, control 699 ± 53.7) stood at 690 ± 39.4 cpm; in data set [3] (5 days, control 621 ± 48.6) it was 1056 ± 66.8 cpm; in [3] (7 days, control 597 ± 33.9), 1184 ± 51.1 cpm; in [3] (9 days, control 600 ± 49.3), 904 ± 57.1 cpm. Moreover, the “Bone absorbing effect, activity of 1α-HCC set at 1” value in data set [3] amounted to 1.
